Measured values taken from publication PMC3308992.
These are yes or no findings as the source states them, for the method shown. In cells and extracts the contact can be indirect. Where a sequence is shown, tags or fusion partners need not be part of it.

Experiments:
[1] = biological target: GST-fused CNOT7 (mouse), Q60809; experiment: pull-down; E. coli extracts expressing GST-fused CNOT proteins mixed with 1–5 mg purified MBP fusion, 2 h at 4°C, then glutathione-sepharose 4FF; 25 mM HEPES-KOH pH 7.4, 150 mM NaCl, 0.1% NP-40; washed with binding buffer supplemented with 350 mM NaCl; anti-MBP western blotting; only the binder purified; details: remark: other sources report otherwise
[2] = biological target: GST-fused CNOT8 (mouse), Q9D8X5; experiment: as above; details: remark: other sources report otherwise

B1: MBP-NANOS2, P60322 1-136 (protein)
chain: MDLPPFDMWRDYFNLSQVVMDIIQSRKQRQEGEVAEEPNSRPQEKSEQDLEGYPGCLPTICNFCKHNGESRHVYTSHQLKTPEGVVVCPILRHYVCPLCGATGDQAHTLKYCPLNSSQQSLYRRSGRNSAGRRVKR
[1]
  binding: no binding (tested: 1–5 mg of MBP-NANOS2)
[2]
  binding: no binding (tested: 1–5 mg of MBP-NANOS2)
